# Source: a collection of fitness landscapes (doi:10.1016/j.celrep.2020.107928)
# Over roughly 81,000 sequences, “one-hybrid fitness for binding parS DNA” has its median near -0.17; the highest 2% begin near 0.51. The list shows a part of the results.
# B1: Caulobacter ParB omega fusion; a variant is named by its letters at X, in order, B8GW30 (parent)
# chain: MESVVVGEPGMSEGRRGLGRGLSALLGEVDAAPAQAPGEQLGGSREAPIEILQRNPDQPRRTFREEDLEDLSNSIREKGVLQPILVRPSPDTAGEYQIVAGERAWRAAQRAGLKTVPIMVRELDDLAVLEIGIIENVQRADLNVLEEALSYKVLMEKFERTQENIAQTIGKSXSHVANXMRLLXLPDEVQSYLVSGELTAXHARAIAAAADPVALAKQIIEGGLSVRETEALARKAPNLSAGKSKGGRPPRVKDTDTQALESDLSSVLGLDVSIDHRGSTGTLTITYATLEQLDDLCNRLTRGI
# Variants of: B1
# Assay: one-hybrid fitness for binding parS DNA (scaled: cognate 1, non-cognate 0); higher = stronger binding
# Settings: with parS DNA site
# Outline: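 Pre- and post-selection plasmids were Illumina-sequenced, three replicate libraries were pooled, and any variant with under 10 reads was removed. The libraries were Caulobacter ParB with four specificity codons randomised, selected in E. coli USO through a HIS3 reporter whose site is 19 bp from the promoter. Cells grew 48 hours at 37°C on M9 without histidine, with 0.1 mM IPTG and 5 mM 3-AT. Fitness is the log change in variant-to-wild-type read ratio, rescaled against cognate and non-cognate.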
row,Variant,one-hybrid fitness for binding parS DNA
1,NKVD,≤ 0.2
2,LAMG,≤ 0.2
3,DLVC,≤ 0.2
4,NRAT,≤ 0.2
5,SVDL,≤ 0.2
6,VVPK,≤ 0.2
7,KMVN,≤ 0.2
8,NHVG,≤ 0.2
9,ESFC,≤ 0.2
10,CWRY,≤ 0.2
11,AKRG,≤ 0.2
12,PNYY,≤ 0.2
13,KIQS,≤ 0.2
14,RGNF,≤ 0.2
15,VYKY,≤ 0.2
16,AHLG,≤ 0.2
17,LRFW,≤ 0.2
18,IRFT,≤ 0.2
19,HVMG,≤ 0.2
20,HVVL,≤ 0.2
21,MTLG,≤ 0.2
22,QTMC,≤ 0.2
23,NATI,≤ 0.2
24,RKQV,≤ 0.2

row,Variant,one-hybrid fitness for binding parS DNA
1,LRRY,≤ 0.2
2,PFHR,≤ 0.2
3,FLST,≤ 0.2
4,RRCK,≤ 0.2
5,FGVS,≤ 0.2
6,KYEG,≤ 0.2
7,SQAG,≤ 0.2
8,HDTE,≤ 0.2
9,TTRN,≤ 0.2
10,HNQW,≤ 0.2
11,TPFA,≤ 0.2
12,NPPW,≤ 0.2
13,RYHC,0.949
14,FLWA,≤ 0.2
15,CSTR,≤ 0.2
16,AKET,≤ 0.2
17,EPGH,≤ 0.2
18,QMLN,≤ 0.2
19,KPPQ,≤ 0.2
20,RIWW,0.219
21,QEIS,≤ 0.2
22,EPQS,≤ 0.2
23,PEAT,≤ 0.2
24,WSMI,≤ 0.2

row,Variant,one-hybrid fitness for binding parS DNA
1,QITY,≤ 0.2
2,EVRC,≤ 0.2
3,RMKL,≤ 0.2
4,AKKF,≤ 0.2
5,TNAL,≤ 0.2
6,RREC,0.731
7,NMRC,≤ 0.2
8,TTAF,≤ 0.2
9,EVKY,≤ 0.2
10,NLMY,≤ 0.2
11,RWMF,≤ 0.2
12,RDKG,0.274
13,YPPC,≤ 0.2
14,RFHV,≤ 0.2
15,ARGD,≤ 0.2
16,DIHS,≤ 0.2
17,SCVC,≤ 0.2
18,DGTG,≤ 0.2
19,WQTS,≤ 0.2
20,FTAT,≤ 0.2
21,LACR,≤ 0.2
22,AKTR,≤ 0.2
23,MARE,≤ 0.2
24,KTEL,≤ 0.2

row,Variant,one-hybrid fitness for binding parS DNA
1,TSAW,≤ 0.2
2,TMRT,≤ 0.2
3,KVAS,≤ 0.2
4,RHFA,0.516
5,RMVA,0.611
6,LYTG,≤ 0.2
7,TPVT,≤ 0.2
8,PWRV,≤ 0.2
9,TGIT,≤ 0.2
10,PFTA,≤ 0.2
11,VTAT,≤ 0.2
12,RGFR,≤ 0.2
13,SGEV,≤ 0.2
14,TANY,≤ 0.2
15,RRDA,0.851
16,SHLV,≤ 0.2
17,IDHS,≤ 0.2
18,AKQI,≤ 0.2
19,RMVK,≤ 0.2
20,CCRC,≤ 0.2
21,ILTQ,≤ 0.2
22,SVDD,≤ 0.2
23,PAWR,≤ 0.2
24,QQKM,≤ 0.2

row,Variant,one-hybrid fitness for binding parS DNA
1,TLEH,≤ 0.2
2,LPNA,≤ 0.2
3,SHVC,≤ 0.2
4,CKIR,≤ 0.2
5,SCVT,≤ 0.2
6,LCKD,≤ 0.2
7,HRCT,≤ 0.2
8,IEWG,≤ 0.2
9,TNGL,≤ 0.2
10,VPVA,≤ 0.2
11,GKCY,≤ 0.2
12,TWVT,≤ 0.2
13,MRNC,≤ 0.2
14,YPGC,≤ 0.2
15,MERL,≤ 0.2
16,PLYL,≤ 0.2
17,LSPD,≤ 0.2
18,IGQG,≤ 0.2
19,FYVG,≤ 0.2
20,SAGA,≤ 0.2
21,SWTF,≤ 0.2
22,DELY,≤ 0.2
23,SWLY,≤ 0.2
24,RCYQ,≤ 0.2

row,Variant,one-hybrid fitness for binding parS DNA
1,KVGR,≤ 0.2
2,LLIL,≤ 0.2
3,HWAG,≤ 0.2
4,TYEV,≤ 0.2
5,PCGR,≤ 0.2
6,IGIS,≤ 0.2
7,VLKS,≤ 0.2
8,RQSQ,≤ 0.2
9,KQTK,≤ 0.2
10,LNRG,≤ 0.2
11,IPIR,≤ 0.2
12,MRAG,≤ 0.2
13,GSLW,≤ 0.2
14,CRCL,≤ 0.2
15,NTLK,≤ 0.2
16,AFHE,≤ 0.2
17,NPTH,≤ 0.2
18,ACNV,≤ 0.2
19,DVVS,≤ 0.2
20,AAAL,≤ 0.2
21,YGYE,≤ 0.2
22,LMQS,≤ 0.2
23,QTQD,≤ 0.2
24,DCTV,≤ 0.2

row,Variant,one-hybrid fitness for binding parS DNA
1,QAEV,≤ 0.2
2,NSGI,≤ 0.2
3,VPET,≤ 0.2
4,PSSK,≤ 0.2
5,CWTT,≤ 0.2
6,RMDR,≤ 0.2
7,MVRY,≤ 0.2
8,HYFI,≤ 0.2
9,YGHS,≤ 0.2
10,RLFA,0.606
11,AQKG,≤ 0.2
12,EQIG,≤ 0.2
13,HVDD,≤ 0.2
14,TGSA,≤ 0.2
15,KTCM,≤ 0.2
16,THYF,≤ 0.2
17,RRKT,0.59
18,AIYC,≤ 0.2
19,NVCA,≤ 0.2
20,CLQC,≤ 0.2
21,SSNF,≤ 0.2
22,NYEL,≤ 0.2
23,IRVD,≤ 0.2
24,NSTP,≤ 0.2

row,Variant,one-hybrid fitness for binding parS DNA
1,EAMT,≤ 0.2
2,KSVH,≤ 0.2
3,MAYL,≤ 0.2
4,RRHM,0.424
5,EPMG,≤ 0.2
6,SAPH,≤ 0.2
7,TLMV,≤ 0.2
8,PNHC,≤ 0.2
9,RHMF,≤ 0.2
10,LTKC,≤ 0.2
11,YLDT,≤ 0.2
12,QPAR,≤ 0.2
13,SEIG,≤ 0.2
14,RAVL,≤ 0.2
15,NWLS,≤ 0.2
16,IDIG,≤ 0.2
17,DELT,≤ 0.2
18,LYNA,≤ 0.2
19,NTDL,≤ 0.2
20,DDPG,≤ 0.2
21,FKNS,≤ 0.2
22,CQSN,≤ 0.2
23,SCIT,≤ 0.2
24,MTMT,≤ 0.2

row,Variant,one-hybrid fitness for binding parS DNA
1,CRNV,≤ 0.2
2,NAWG,≤ 0.2
3,EYWD,≤ 0.2
4,GQIL,≤ 0.2
5,LTKR,≤ 0.2
6,RCHS,0.953
7,DKIR,≤ 0.2
8,DDSS,≤ 0.2
9,RVVS,1.03
10,CTGS,≤ 0.2
11,TTTT,≤ 0.2
12,QLAK,≤ 0.2
13,GRMG,≤ 0.2
14,GLYT,≤ 0.2
15,LRGN,≤ 0.2
16,RKFT,0.771
17,LINC,≤ 0.2
18,GGDY,≤ 0.2
19,SGYC,≤ 0.2
20,QHFN,≤ 0.2
21,GYSP,≤ 0.2
22,VSKE,≤ 0.2
23,VITC,≤ 0.2
24,KDAE,≤ 0.2

row,Variant,one-hybrid fitness for binding parS DNA
1,MCPV,≤ 0.2
2,TVTT,≤ 0.2
3,VGPL,≤ 0.2
4,RADT,0.732
5,YSAD,≤ 0.2
6,NCSS,≤ 0.2
7,LLST,≤ 0.2
8,RSNE,≤ 0.2
9,VPKS,≤ 0.2
10,AATV,≤ 0.2
11,TTQG,≤ 0.2
12,PMVA,≤ 0.2
13,HNSQ,≤ 0.2
14,CNSV,≤ 0.2
15,PNSL,≤ 0.2
16,PTGA,≤ 0.2
17,DNKT,≤ 0.2
18,QQEY,≤ 0.2
19,TLNR,≤ 0.2
20,AAWC,≤ 0.2
21,VENW,≤ 0.2
22,RTKM,0.594
23,GVSW,≤ 0.2
24,GRRH,≤ 0.2

row,Variant,one-hybrid fitness for binding parS DNA
1,VSFP,≤ 0.2
2,HHRF,≤ 0.2
3,QYNQ,≤ 0.2
4,LDLN,≤ 0.2
5,DRFL,≤ 0.2
6,LPDS,≤ 0.2
7,AILF,≤ 0.2
8,HMTH,≤ 0.2
9,RFCI,≤ 0.2
10,RGKD,≤ 0.2
11,VKTG,≤ 0.2
12,PGDF,≤ 0.2
13,QGAV,≤ 0.2
14,YNHG,≤ 0.2
15,GWGS,≤ 0.2
16,VHPM,≤ 0.2
17,SPHF,≤ 0.2
18,SNPR,≤ 0.2
19,QCEY,≤ 0.2
20,ALFK,≤ 0.2
21,YTDL,≤ 0.2
22,LVPK,≤ 0.2
23,EYCL,≤ 0.2
24,RSPD,≤ 0.2

row,Variant,one-hybrid fitness for binding parS DNA
1,YIAR,≤ 0.2
2,SPPT,≤ 0.2
3,NCHG,≤ 0.2
4,VQSF,≤ 0.2
5,PPCL,≤ 0.2
6,PTAD,≤ 0.2
7,NNPC,≤ 0.2
8,VATS,≤ 0.2
9,TTAD,≤ 0.2
10,HSNC,≤ 0.2
11,GMMF,≤ 0.2
12,QLPR,≤ 0.2
13,YYSN,≤ 0.2
14,VARQ,≤ 0.2
15,SDLG,≤ 0.2
16,RHFR,≤ 0.2
17,NGHF,≤ 0.2
18,RLRD,≤ 0.2
19,QKVF,≤ 0.2
20,GQAR,≤ 0.2
21,RVKP,≤ 0.2
22,DTSY,≤ 0.2
23,AMPL,≤ 0.2
24,RARV,≤ 0.2

row,Variant,one-hybrid fitness for binding parS DNA
1,ENCG,≤ 0.2
2,VHTM,≤ 0.2
3,YPMG,≤ 0.2
4,RLWY,0.497
5,HPQD,≤ 0.2
6,TTMD,≤ 0.2
7,DAHI,≤ 0.2
8,AGPK,≤ 0.2
9,PKIC,≤ 0.2
10,DAVW,≤ 0.2
11,GATP,≤ 0.2
12,RDAG,≤ 0.2
13,QKCH,≤ 0.2
14,KPSL,≤ 0.2
15,TEHF,≤ 0.2
16,RTKV,≤ 0.2
17,MTNM,≤ 0.2
18,SLLI,≤ 0.2
